This note sets out measurements from PubChem BioAssay AID1508642 (National Center for Advancing Translational Sciences (NCATS), 2021).

Each structure is given as a SMILES string. Among all 43,000 compounds or so, about 200 (0.47%) were called active. Inconclusive results (about 12%) are left out. The call rests on the fitted dose curve; in most records, active means well fitted cell-killing curve with a large enough effect; inconclusive means small, poorly fitted or top-dose-only effect, or effect the other way; inactive means flat fitted curve, though single readings scatter. The list shows a part of the results.
On the % scale 0 is the no-effect control and ±100 the full control effect; potency means the concentration at half of the fitted maximal effect.

This assay is described as follows: Cell viability qHTS assay in S16 Pmp22-F2sN cells. Further: nearly all actives have a fitted effect of over 65% in size. Particulars: S16 Pmp22-F2sN Schwann cells (luciferase reporters placed in the Pmp22 gene) viability, CellTiter-Glo, 24 h; series mostly up to 57.5 µM; activity change, negative = cytotoxicity: at the top concentration. The method, boiled down:
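CellTiter-Glo counter-screen, qHTS, 1536-well. Cells: S16(c9) Pmp22-F2sN, 500-1,000/well in DMEM + 10% FBS. Cpd 23 nL pin transfer, 24 h, 37C/5% CO2. Read: luminescence, CCD imager.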
For the molecule `COc1ccc(NC(=O)CSc2nccn2C2CCCC2)cc1OC`, the “activity change, negative = cytotoxicity” value was inactive: -23.5%.

With `COc1ccc(-c2cn3nc(N4CCCC(C(=O)Nc5ccccc5F)C4)sc3n2)cc1` (stereo not given), the “activity change, negative = cytotoxicity” value is inactive: 6.83%.

Turning to `CCCCN(CCCNC(=O)c1cc(Nc2ccc(OC)cc2OC)nc2ccccc12)Cc1ccccc1`, the “activity change, negative = cytotoxicity” value is inactive: -21.8%.

For `CCCCOC(=O)c1ccc(NC(=O)C2(c3cccs3)CCOCC2)cc1`, the “activity change, negative = cytotoxicity” value is inactive: 19.5%.

Consider `CCOC(=O)c1c(NC(=O)CSc2cn(CCNC(=O)c3ccc(OC)cc3)c3ccccc23)sc2c1CCC2`, for which the “activity change, negative = cytotoxicity” value was inactive: 3.91%.

As to `COc1ccc(NC(=O)CSc2nc(-c3ccccc3)cc(-c3cc(OC)c(OC)c(OC)c3)c2C#N)c(OC)c1`, the “activity change, negative = cytotoxicity” value is inactive: 17.6%.

On to `COc1ccc(-c2nnc(SCC(=O)Nc3cccc(C)c3)s2)cc1`, for which the “activity change, negative = cytotoxicity” value was inactive: -6.77%.

For `CC(C)(Oc1ccc(Cl)cc1)C(=O)Nc1ccc(-c2nc3ncccc3o2)cc1`, the “activity change, negative = cytotoxicity” value was inactive: 19.8%.

Consider `COc1ccccc1N1CCN(S(=O)(=O)CCNC(=O)c2cc(=O)c3ccccc3o2)CC1`, for which the “activity change, negative = cytotoxicity” value was inactive: -16.3%.

Turning to `Cc1ccc(Cn2cc(S(=O)(=O)c3ccccc3)c(=O)c3cc(F)c(N4CCOCC4)cc32)cc1`, the “activity change, negative = cytotoxicity” value is inactive: -22.9%.

Turning to `Cn1ccc2cc(S(=O)(=O)N3CCN(C(=O)Nc4cccc(F)c4)CC3)ccc21`, the “activity change, negative = cytotoxicity” value is inactive: 0.65%.

For the molecule `COc1ccc(NC(=O)C(c2ccc(OC)cc2)N(C)C(=O)Cc2cccs2)cc1` (stereo not given), the “activity change, negative = cytotoxicity” value was inactive: -9.99%.

`Cc1ccc2c(CC(=O)Nc3ccc(S(=O)(=O)N4CCC(C)CC4)cc3)coc2c1`: the “activity change, negative = cytotoxicity” value is inactive: -0.875%.

Turning to `CC1CCc2nc3ccc(S(=O)(=O)N4CCC(C(=O)NCc5ccccc5Cl)CC4)cc3c(C(=O)O)c2C1` (stereo not given), the “activity change, negative = cytotoxicity” value was inactive: -1.2%.

On to `Cc1nn(-c2ccccc2)c2c1N(CCCC(=O)NCc1ccc(OC(C)C)cc1)C(=O)CS2`, for which the Potency is active: 10 µM.

On to `O=c1c2[nH]c3ccccc3c2nc(SCc2ccccc2F)n1-c1ccc(F)cc1`, for which the “activity change, negative = cytotoxicity” value was inactive: 6.74%.

As to `CCCn1c2ccccc2c2cnn(CC(=O)Nc3ccccc3OC)c(=O)c21`, the “activity change, negative = cytotoxicity” value is inactive: -5.79%.

`COC(=O)c1ccccc1NC(=O)Cn1nc(C)c2nn(-c3ccc(Cl)cc3)c(C)c2c1=O`: the “activity change, negative = cytotoxicity” value was inactive: -10.7%.

As to `O=C(CSc1nc2c(c(=O)[nH]1)CN(Cc1ccc3c(c1)OCO3)CC2)Nc1cc(F)ccc1F`, the “activity change, negative = cytotoxicity” value is inactive: 5.63%.

In the case of `Cc1ccccc1OCC(=O)Nc1ccc(OCc2cc(=O)n3ccccc3n2)cc1`, the “activity change, negative = cytotoxicity” value was inactive: 0.225%.

With `Cc1ccc(CNC(=O)c2ccc3oc(=O)n(Cc4ccccc4)c3c2)cc1`, the “activity change, negative = cytotoxicity” value was inactive: -2.84%.

For `COc1ccc(Cl)cc1NC(=O)C1CCCN(S(=O)(=O)c2ccc3c(c2)CCCC(=O)N3)C1` (stereo not given), the “activity change, negative = cytotoxicity” value was inactive: -21.7%.

Regarding `COC(=O)c1ccc(NC(=O)c2cc3cc(C)ccc3n2C)cc1`, the “activity change, negative = cytotoxicity” value was inactive: -6.04%.

Take `COc1ccc(NC(=O)CSc2nc3ccccc3n2CC(=O)NCc2ccc(F)cc2)cc1`: the “activity change, negative = cytotoxicity” value was inactive: -9.04%.

As for `COc1ccc(NC(=O)c2ccc(-c3nc(COc4ccccc4)c(C)o3)cc2)cc1`, the “activity change, negative = cytotoxicity” value is inactive: -1.38%.

In the case of `CCCCSCCCNC(=O)c1cn(CC)c2ccc(S(=O)(=O)N3CCOCC3)cc2c1=O`, the “activity change, negative = cytotoxicity” value is inactive: 0.85%.

As to `CCOc1ccc(NC(=O)CSc2nnc3c(C)cc4ccccc4n23)cc1`, the “activity change, negative = cytotoxicity” value is inactive: 23%.

As for `COc1ccc(S(=O)(=O)N2CCC(C(=O)Nc3ccc(Oc4ccccc4)cc3)CC2)cc1OC`, the “activity change, negative = cytotoxicity” value is inactive: 1.62%.

Take `COc1ccc2c(c1)CC(C(=O)Nc1c(C)cc(C)cc1C)CO2` (stereo not given): the “activity change, negative = cytotoxicity” value is inactive: 6.28%.

`NS(=O)(=O)c1ccc(CCNC(=O)Cn2c(=O)c3cccn3c3ccc(F)cc32)cc1`: the “activity change, negative = cytotoxicity” value was inactive: 22.7%.

For the molecule `COc1cccc2c1Oc1ncccc1N(C(=O)CCC(=O)NCc1ccc(OC(C)C)cc1)C2`, the “activity change, negative = cytotoxicity” value is inactive: 0.78%.

With `Cc1nn(CC(=O)NC(C)c2ccccc2)c(=O)c2cc3occc3n12` (stereo not given), the “activity change, negative = cytotoxicity” value is inactive: 0.0668%.

Take `O=C(CSc1nc2c([nH]c3ccccc32)c(=O)n1-c1ccccc1)Nc1ccccc1C(F)(F)F`: the “activity change, negative = cytotoxicity” value was inactive: 9.69%.

On to `NC(=O)COc1ccc(-c2noc(COc3ccc(Cl)cc3)n2)cc1`, for which the “activity change, negative = cytotoxicity” value is inactive: -3.95%.

Turning to `CCOC(=O)C1=C(CN2CCN(c3ccc(Cl)cc3)CC2)NC(=O)NC1c1ccc(F)cc1` (stereo not given), the “activity change, negative = cytotoxicity” value was inactive: -10.2%.

On to `COc1ccc(OC)c(NC(=O)CCCOc2cc(=O)n(C)c3ccccc23)c1`, for which the “activity change, negative = cytotoxicity” value was inactive: -14.4%.

In the case of `COc1cccc(C(=O)NCC(c2ccc3c(c2)OCO3)N2CCN(C)CC2)c1` (stereo not given), the “activity change, negative = cytotoxicity” value was inactive: 20.9%.

As for `Cc1[nH]c2ccccc2c1C1(O)C(=O)Nc2ccc(Cl)cc21` (stereo not given), the “activity change, negative = cytotoxicity” value was inactive: 4.19%.

For `COc1cc(CNCCCSc2nnnn2C)cc(Br)c1OC`, the “activity change, negative = cytotoxicity” value was inactive: 13.4%.

Consider `O=C(Nc1cccc(F)c1)C1CCN(c2nc3ccccc3nc2C(F)(F)F)CC1`, for which the “activity change, negative = cytotoxicity” value is inactive: -6.03%.

On to `CCc1ccccc1-n1nnc(-c2nc(-c3ccccc3F)no2)c1C`, for which the “activity change, negative = cytotoxicity” value was inactive: 2.26%.

For `Cc1ccc2c(c1)-c1nc(-c3ccccc3)cc(-c3ccccc3)c1CO2`, the “activity change, negative = cytotoxicity” value is inactive: 3.72%.

As to `CCc1ccc(-c2nc(CN3CCCC(C(=O)NCc4ccccc4Cl)C3)c(C)o2)cc1` (stereo not given), the “activity change, negative = cytotoxicity” value was inactive: -2.94%.

As to `COc1cc(C(=O)N(CCCN(C)C)c2nc3c(OC)cccc3s2)cc(OC)c1OC`, the “activity change, negative = cytotoxicity” value is inactive: -1.36%.

As to `O=C(NC1CCCC1)c1ccc2c(c1)N(Cc1c(F)cccc1Cl)C(=O)c1ccccc1S2`, the “activity change, negative = cytotoxicity” value was inactive: 11.3%.

`Cc1nn2c(=O)cc(COC(=O)c3ccccc3NC(=O)C3CCCCC3)nc2s1`: the “activity change, negative = cytotoxicity” value was inactive: 5.56%.

`CCOc1ccc(N(CC)S(=O)(=O)N2CCCC(C(=O)NCc3ccccc3OCC)C2)cc1` (stereo not given): the “activity change, negative = cytotoxicity” value is inactive: -6.81%.

Take `COc1cc(-c2cc3n(C)c(C)c(CCC(=O)NC4CCC(C)CC4)c(=O)n3n2)cc(OC)c1OC` (stereo not given): the “activity change, negative = cytotoxicity” value was inactive: -7.07%.

As to `CCOc1ccc(CCNc2ncnc3onc(C)c23)cc1OCC`, the “activity change, negative = cytotoxicity” value is inactive: -24.5%.

On to `COc1ccc(CCNC(=O)CCCCn2c(=O)c3ccccc3n(Cc3cccc(C)c3)c2=O)cc1OC`, for which the “activity change, negative = cytotoxicity” value was inactive: -1.32%.

As for `CCOC(=O)c1cnc2c(OC)cccc2c1N1CCN(c2ccccc2F)CC1`, the “activity change, negative = cytotoxicity” value is inactive: -26.8%.

For the molecule `COc1ccc(CNC(=O)c2ccc(-c3nc(CSc4ccccc4)c(C)o3)cc2)cc1`, the “activity change, negative = cytotoxicity” value is inactive: 12.4%.

As for `COc1ccc(C(=O)Nc2ccc3c(c2)CCCN3S(=O)(=O)c2ccc(C)cc2)cc1`, the “activity change, negative = cytotoxicity” value was inactive: 4.85%.

Take `CCCCN(CCCC)CCn1cnc2c([nH]c3ccc(OC)cc32)c1=O`: the “activity change, negative = cytotoxicity” value was inactive: -1.72%.

As to `COc1ccc(NC(=O)c2oc3ccccc3c2NC(=O)c2cc(=O)c3ccccc3o2)cc1`, the “activity change, negative = cytotoxicity” value was inactive: -13.7%.

On to `CCn1cc(C(=O)N2CCN(c3ccccc3OC)CC2)c2cc(OC)c(OC)cc2c1=O`, for which the “activity change, negative = cytotoxicity” value is inactive: -2.25%.

On to `CCC(Oc1ccccc1)C(=O)Nc1nnc(S(=O)(=O)N2CCCC2)s1` (stereo not given), for which the “activity change, negative = cytotoxicity” value is inactive: -1.4%.

For the molecule `CCc1ccc(OCC(=O)Nc2c(C(=O)c3ccc(Br)cc3)oc3ccccc23)cc1`, the “activity change, negative = cytotoxicity” value was inactive: 1.29%.

On to `CCOc1cccc2sc(=NC(=O)c3ccc(S(=O)(=O)N4CCOCC4)cc3)n(C)c12`, for which the “activity change, negative = cytotoxicity” value was inactive: 2.25%.

Turning to `CCc1ccc(NC(=O)c2ccc(CNS(=O)(=O)c3ccc4c(c3)C(C)(C)C(=O)N4C)cc2)cc1`, the “activity change, negative = cytotoxicity” value is inactive: -2.96%.
